In the RNAGym collection of RNA variant scans (doi:10.1073/pnas.2313332121):
Variants at the background level are over-represented here.

B1: TPR 5TU (parent)
chain: GGAUCUUCUCGAUCUAACAAAAAAGACAAAUCUGCCACAAAGCUUGAGAGCAUCUUCGGAUGCAGAGGCGGCAGCCUUCGGUGGCGCGAUAGCGCCAACGUUCUCAACUAUGACACGCAAAACGCGUGCUCCGUUGAAUGGAGUUUAUCAUG

Variants of: B1
Assay: polymerase ribozyme fitness, log enrichment relative to wild type (log ratio); higher = more active; in vitro selection for triplet polymerase activity
Procedure, shortened: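 Genotype fitness is the logarithm of its enrichment divided by wild-type enrichment, using inverse-variance-weighted averages of replicates. That logarithm is base 2. Enrichment was measured by Illumina sequencing of input and output libraries from one triplicate in vitro selection round, with frozen incubation at −7 °C, on PCR-built, transcribed mutant libraries of each subunit of a heterodimeric triplet polymerase ribozyme, retaining genotypes with ≥10 input reads and ≥1 read per output.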

| Variant | polymerase ribozyme fitness (log ratio) |
| --- | --- |
| U33A C57U C79G A89U A97G | ≤ -4.2 |
| U33A C85U | -3.79 |
| U33A C95U A142U G143U | -4.13 |
| U33A C116U C125G G140U | ≤ -4.2 |
| U33A G46A G59A C103A A115G | -4.12 |
| U33A G50C G81A C93G C96U A98G C103G G152U | ≤ -4.2 |
| U33A G50U G58C G141A A150G | ≤ -4.2 |
| U33A G58A G86A C116G U127G | ≤ -4.2 |
| U33A G74A | ≤ -4.2 |
| U33A G74C C87U | ≤ -4.2 |
| U33A G84A C95A A110G | ≤ -4.2 |
| U33A G84U C116G C123G G133U | ≤ -4.2 |
| U33A G92A | ≤ -4.2 |
| U33A G92A A138C | ≤ -4.2 |
| U33A U44A G58C C93G A97G C125A | ≤ -4.2 |
| U33A U55A C105U | ≤ -4.2 |
| U33A U102C A107U A110G U144C | ≤ -4.2 |
| U33C A39U G62A G86A A107U | ≤ -4.2 |
| U33C A40C U55A A110G | ≤ -4.2 |
| U33C A41U C57U G70C G83A A119C | ≤ -4.2 |
| U33C A49C C57U U145A U151A | ≤ -4.2 |
| U33C A49C U53A G84U G88C C93G U134A | ≤ -4.2 |
| U33C A97G | -2.92 |
| U33C A97U C125G | ≤ -4.2 |

| Variant | polymerase ribozyme fitness (log ratio) |
| --- | --- |
| U33C C35G C51U A52G C103G | ≤ -4.2 |
| U33C C36A U55A G83A A89G A142U U148C | ≤ -4.2 |
| U33C C51A C85U U134A | ≤ -4.2 |
| U33C C57U C105G A107G U145G | ≤ -4.2 |
| U33C C57U G80U G83U C87U G128U | ≤ -4.2 |
| U33C C63U C99U A142G | ≤ -4.2 |
| U33C C69U | -0.0558 |
| U33C C76U C93A A97U C105G U146G | ≤ -4.2 |
| U33C C85A | -3.61 |
| U33C C87G | ≤ -4.2 |
| U33C G50A A121C A142G | ≤ -4.2 |
| U33C G50C U53A U55A C57U G71C | ≤ -4.2 |
| U33C G59U C85U G124A A137U G140C | ≤ -4.2 |
| U33C G70C A119C G124U U146G | ≤ -4.2 |
| U33C G81U C93G G143U | -4.06 |
| U33C U55A A60U | ≤ -4.2 |
| U33C U56C G59C C79A C95U C123A | ≤ -4.2 |
| U33G A39C A120C | ≤ -4.2 |
| U33G A41U G46C C54G G62C G70U C96A A120G G124U | ≤ -4.2 |
| U33G A49C A91C C93U C125U | ≤ -4.2 |
| U33G A52U | ≤ -4.2 |
| U33G A52U C96U | ≤ -4.2 |
| U33G A60G | -2.79 |
| U33G A66C C95U | ≤ -4.2 |

| Variant | polymerase ribozyme fitness (log ratio) |
| --- | --- |
| U33G A121C A137U A147G | ≤ -4.2 |
| U33G A142U U144C | ≤ -4.2 |
| U33G C35A C95G A120G C125U | ≤ -4.2 |
| U33G C35G C54G A142C | ≤ -4.2 |
| U33G C35U C43A C54A G68A G143A | ≤ -4.2 |
| U33G C43U A60U G88A U109G U135G G143A | -4.09 |
| U33G C54U C75U A89U C99A A115G | ≤ -4.2 |
| U33G C72G G80A C85A U151G | ≤ -4.2 |
| U33G C87A | ≤ -4.2 |
| U33G C87A A142U | ≤ -4.2 |
| U33G C114A C118G A137C | ≤ -4.2 |
| U33G G34U | ≤ -4.2 |
| U33G G42A U77C G84C C85U G117U | ≤ -4.2 |
| U33G G46A G94C C95U U135A | ≤ -4.2 |
| U33G G48C U53A C93U C149U | ≤ -4.2 |
| U33G G48U C72U U90G C99A A138C G141A | ≤ -4.2 |
| U33G G50A A52C C76U C79U A107G U151A | ≤ -4.2 |
| U33G G50A G126A C132G U144G | ≤ -4.2 |
| U33G G58C G65A A138C | ≤ -4.2 |
| U33G G59A C75G G141C | ≤ -4.2 |
| U33G G59A G94U | -3.39 |
| U33G G59U G71U A106C A107G A113C U134G U146G | ≤ -4.2 |
| U33G G62U C69U C103A G126C | ≤ -4.2 |
| U33G G67U C85G C96G A122G G140A | ≤ -4.2 |

| Variant | polymerase ribozyme fitness (log ratio) |
| --- | --- |
| U33G G74A C87G | ≤ -4.2 |
| U33G G117A U134C | -2.88 |
| U33G U44A A142G | ≤ -4.2 |
| U33G U53A C95A A122C G133U U139A A150U | ≤ -4.2 |
| U33G U55G U109G G136U | ≤ -4.2 |
| U33G U77G G86U U139A | ≤ -4.2 |
| U33G U90C A137U | ≤ -4.2 |
| G34A A37C C43U C125G U130A C149A | ≤ -4.2 |
| G34A A39G G71C C87A C99U C118U | ≤ -4.2 |
| G34A A40U U45C C69A C76A C87U G94A A106G A122U G124C U151A | ≤ -4.2 |
| G34A A49C C95U G140U G141A | ≤ -4.2 |
| G34A C35G G50U G68C C76A | ≤ -4.2 |
| G34A C43A G92U C118U | ≤ -4.2 |
| G34A C57A G58A G65C G68A C79G A106G C129G | ≤ -4.2 |
| G34A C87U C105U U145G | ≤ -4.2 |
| G34A C93G C105G | ≤ -4.2 |
| G34A C93G G112C | ≤ -4.2 |
| G34A C95G C96U G100U | ≤ -4.2 |
| G34A C116A G117A | ≤ -4.2 |
| G34A G42U G58C C72U G84U | ≤ -4.2 |
| G34A G58A U90A G94A U109G | ≤ -4.2 |
| G34A G58C G92C C105G C114U G126C U134G | ≤ -4.2 |
| G34A G74U G94A C116G | ≤ -4.2 |
| G34A G117U A137C A142U | ≤ -4.2 |

| Variant | polymerase ribozyme fitness (log ratio) |
| --- | --- |
| G34A U45A G94A U109A | ≤ -4.2 |
| G34A U56A G58U A73U C76U U78G G88A C95U C105U A122U C132G | ≤ -4.2 |
| G34C A41C U109C | ≤ -4.2 |
| G34C C35G G42A A66G C99G | ≤ -4.2 |
| G34C C75U U77C | ≤ -4.2 |
| G34C C85G C105G A137G | ≤ -4.2 |
| G34C C85U C96G C132U | ≤ -4.2 |
| G34C C93G A98G | ≤ -4.2 |
| G34C G50A A66G C93G U139A C149U | ≤ -4.2 |
| G34C G58A U77A U82G G86A C105A U127A G141C | ≤ -4.2 |
| G34C U55G G65A | ≤ -4.2 |
| G34C U55G G84A C108A C132A | ≤ -4.2 |
| G34C U56A G74A G88A U90A A137G | ≤ -4.2 |
| G34C U61G A64G C93U C95G G112U G141A | ≤ -4.2 |
| G34U A39U C43A C85U G117A | -3.98 |
| G34U A47U G59C A60G C75G G80A | ≤ -4.2 |
| G34U A49C C76G A106G A137C | ≤ -4.2 |
| G34U A52G C95G G133A U145A A150C | ≤ -4.2 |
| G34U C35G C76A G86C C103G A121G G126C | ≤ -4.2 |
| G34U C51U G59U G88A G141U A142G U146G A147U | ≤ -4.2 |
| G34U C54U A66C A91U A121U | -4.11 |
| G34U C54U U78G G83A C108G | -4.13 |
| G34U C63U C76U A89U C108A A137U | ≤ -4.2 |
| G34U C76G C79U C96G A97U C103A A107U A120U U145A C149U | ≤ -4.2 |

| Variant | polymerase ribozyme fitness (log ratio) |
| --- | --- |
| G34U C95G A97U G100U G128A C132G U135C | ≤ -4.2 |
| G34U C95U A107G A110G | -3.86 |
| G34U G48A G94A G128C U146A U151G | ≤ -4.2 |
| G34U G88A C93U C103U G133C | ≤ -4.2 |
| G34U G94C G143A | ≤ -4.2 |
| G34U U55G G84C G94A A97C C105U C149U | ≤ -4.2 |
| C35A A37G U56A U61A | -3.7 |
| C35A A41C G68A C93G C108G A147G | ≤ -4.2 |
| C35A A41G U56A G81A A107U | ≤ -4.2 |
| C35A A52C C79G C96U U127C C149A | ≤ -4.2 |
| C35A A52G U78A C103A | ≤ -4.2 |
| C35A A64C A98U C99U G152U | ≤ -4.2 |
| C35A A89U U90G C99U U144G | ≤ -4.2 |
| C35A A98G U101C | ≤ -4.2 |
| C35A C43U A49U A64G C76U C96A U101G C149U | ≤ -4.2 |
| C35A C43U C87A G128A | ≤ -4.2 |
| C35A C54A C96U A107C | ≤ -4.2 |
| C35A C57G G58U U77A | ≤ -4.2 |
| C35A C57U C76G | ≤ -4.2 |
| C35A C75U C76G G86U C118A | ≤ -4.2 |
| C35A C75U G128U U144G | ≤ -4.2 |
| C35A C76U G81A C96U C103A | ≤ -4.2 |
| C35A C79U U90G G92C C95G C99A A115C U144G | ≤ -4.2 |
| C35A C85A C93A A98U G100U C108G C114A | ≤ -4.2 |

| Variant | polymerase ribozyme fitness (log ratio) |
| --- | --- |
| C35A C108G C116A A142U | ≤ -4.2 |
| C35A G59U C85A C105U | ≤ -4.2 |
| C35A G65U G83A G140U | ≤ -4.2 |
| C35A G67U G94U | ≤ -4.2 |
| C35A G74C C103G U139G | ≤ -4.2 |
| C35A G86U C105U U109G | ≤ -4.2 |
| C35A G88U U101A U130C | ≤ -4.2 |
| C35A G94A | -3.56 |
| C35A U44A G70C C76U C103G U145G | ≤ -4.2 |
| C35A U45A U55A C85G G92U C96U A120U C125G A137C | ≤ -4.2 |
| C35A U55G C69A G140A | ≤ -4.2 |
| C35A U56C U82A | -3.49 |
| C35A U77C G83A A106C G126A U134G | ≤ -4.2 |
| C35A U82G C85A U109G G141A G143A A150C U151A | ≤ -4.2 |
| C35A U101A | ≤ -4.2 |
| C35G A37U G42C G58C G59C G86U U130G | ≤ -4.2 |
| C35G A49C | ≤ -4.2 |
| C35G A73G C75U C99A | ≤ -4.2 |
| C35G A91C C118G C123A | ≤ -4.2 |
| C35G A91U G152U | ≤ -4.2 |
| C35G A98U | ≤ -4.2 |
| C35G C36A A52C U82G G86U A121G | ≤ -4.2 |
| C35G C51U A107C G128U | ≤ -4.2 |
